Results as given in patent US20250064840A1, “DRUG DELIVERY SYSTEMS BASED ON ENDOPEROXIDES USEFUL IN DIAGNOSIS AND THERAPY, AND METHODS THEREOF” (FACULDADE DE FARMÁCIA DA UNIVERSIDADE DE LISBOA, priority 2021, published 2025).

Experiments:
HCT116 cells [1] = experiment: Iron competition assay with DFO, MTS assay; assay type: cell-based, human; details: 24 hours
HCT116 cells [2] = details: 1 μM, 24 hours incubation

Row | Compound | induction of cell death (cell viability, MTS) (HCT116 cells [1]; 10 μM compound alone, versus DMSO) | reduction in potency with DFO versus compound alone (HCT116 cells [1]; 10 μM compound together with 1 μM DFO) [%] | cellular localization of fluorescence (HCT116 cells [2])
1 | COc1cccc2c1C(=O)c1c(O)c3c(c(O)c1C2=O)C[C@](O)(C(=O)CO)C[C@H]3O[C@@H]1CC(NC(=O)OCC2=CCCCC23OOC2(OO3)C3CC4CC2CC(O)(C4)C3)[C@@H](O)[C@@H](C)O1 (stereo partly drawn) [Compound IIe] | induces cell death | 7 | 
2 | COc1cccc2c1C(=O)c1c(O)c3c(c(O)c1C2=O)C[C@@](O)(C(=O)CO)C[C@@H]3O[C@H]1C[C@H](N)[C@H](O)[C@H](C)O1 [Doxorubicin, doxorubicin, reference compound] |  |  | accumulated in the nucleus
